# PubChem BioAssay AID1745853 (National Center for Advancing Translational Sciences (NCATS), 2022)
# The other results are listed elsewhere or left out. Shown are side measurements of this screen, not its main read-out; they come without a call.
# Columns and labels:
# Assay in all cases: Primary Screen for Target Class Profiling of Small Molecule Inhibitors of Methyltransferases
# [1] = biological target: Glycine N-methyltransferase (Homo sapiens) (UniProt Q14749); conditions: purified enzyme, MTase-Glo SAH luminescence; measured here: GNMT inhibition; at 40 µM; stronger effect = lower value
# How it was run: (§1)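 Each enzyme was reacted with SAM and its substrate, with compounds tested once at 40 uM; SAH formed was read by MTase-Glo luminescence.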
# [2] = biological target: Guanidinoacetate N-methyltransferase (Homo sapiens) (UniProt Q14353); conditions: purified enzyme, MTase-Glo SAH luminescence; measured here: GAMT inhibition; at 40 µM; stronger effect = lower value
# How it was run: as §1
# [3] = biological target: Histamine N-methyltransferase (Homo sapiens) (UniProt P50135); conditions: purified enzyme, MTase-Glo SAH luminescence; measured here: HNMT inhibition; at 40 µM; stronger effect = lower value
# How it was run: as §1
# [4] = biological target: Nicotinamide N-methyltransferase (Homo sapiens) (UniProt P40261); conditions: purified enzyme, MTase-Glo SAH luminescence; measured here: NNMT inhibition; at 40 µM; stronger effect = lower value
# How it was run: as §1
# [5] = biological target: Phenylethanolamine N-methyltransferase (Homo sapiens) (UniProt P11086); conditions: purified enzyme, MTase-Glo SAH luminescence; measured here: PNMT inhibition; at 40 µM; stronger effect = lower value
# How it was run: as §1
# % is set by controls: 0 for no effect and ±100 for the full control effect.
Compound,"activity change, negative = inhibition [1] [%]","activity change, negative = inhibition [2] [%]","activity change, negative = inhibition [3] [%]","activity change, negative = inhibition [4] [%]","activity change, negative = inhibition [5] [%]"
CC(=O)Nc1c2n(c3ccc(F)cc13)CC(C)(C(=O)NC1CCCCC1)N(C1CCCC1)C2=O (stereo not given),-8.47,-4.33,-3.75,-3.98,-0.657
CCOC(=O)N1CCN(/[N+]([O-])=N/Oc2ccc([N+](=O)[O-])cc2[N+](=O)[O-])CC1,-11.8,7.26,0.095,-1.67,5.48
COC(=O)c1ncn2c1C(=O)N(c1ccc3c(c1)OCO3)C(C)(C(=O)NCc1ccccc1)C2 (stereo not given),-12.4,-1.51,-3.82,-7.58,-8.34
Cc1cc(C)n(CC(=O)N2CCCC2c2nc(CCOCC3CCOCC3)no2)n1 (stereo not given),-0.601,0.617,0.103,1.07,-1.35
Cc1ncc2n1C(=O)N(C1CCN(CC3CC3)CC1)C2,-4.37,-10.6,-15.7,-12.6,-7.63
CC1(C(=O)NC2CCCC2)Cn2c(cc3ccccc32)C(=O)N1Cc1cccnc1 (stereo not given),-0.914,0,4.27,2.13,-1.18
CC(C)NCC(O)COc1ccc(CCOCC2CC2)cc1 (stereo not given),2.58,10.6,0.835,-5.04,1.07
COc1ccc2cc3n(c2c1)CC(C)(C(=O)NC1CCCC1)N(c1cc(C)cc(C)c1)C3=O (stereo not given),-2.08,3.05,2.18,-2.59,-6
COc1ccccc1N1CCN([C@@H]2[C@H](O)[C@H](CO)O[C@@H]2CNC(=O)c2ccccc2)CC1,-6.56,-7.87,-3.96,-17.5,-7.27
C[C@@H]1O[C@@H](O[C@H]2[C@H](O)[C@@H](O[C@@H]3O[C@H](CO)[C@H](O)[C@H](O)[C@H]3O)[C@H](O[C@H]3CC[C@@]4(C)C(CC[C@]5(C)C4CC=C4[C@@H]6CC(C)(C)CC[C@]6(C(=O)O[C@@H]6O[C@H](CO)[C@@H](O)[C@H](O)[C@H]6O)CC[C@]45C)C3(C)C)O[C@@H]2C(=O)O)[C@H](O)[C@H](O)[C@H]1O (stereo not given in full),0,7.91,9.79,-2.33,10.9
Cc1ccc(CNC(=O)Cn2nc3n(C)c(=O)c4ccc(C(=O)NC5CCCC5)cc4n3c2=O)cc1,5.63,0,3.12,6.33,5.3
CCOCCCNC(=O)CCc1nnc2n(Cc3ccccc3Cl)c(=O)c3ccccc3n12,-8.33,3.48,1.91,5.37,-1.44
COc1cccc(-c2nc3ccc(-c4ccc5c(c4)OCO5)cc3o2)c1OC,-4.04,-2.28,-1.63,-0.009,-2.49
CC(C)CCn1c(=O)c2ccccc2n2c(SCC(=O)Nc3ccc(F)cc3)nnc12,-1.46,5.57,1.17,-16.6,2.71
CCOC(=O)c1ccc(CNC(=O)c2cn(CCCc3ccccc3)nn2)o1,-9.15,-5.79,-1.72,-12.6,-5.64
